# Measured values as given in ChEMBL document CHEMBL1201862, “PubChem BioAssay data set” (2004).
#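 Dose response: 5 concentrations. Exposure: 48 h. Format: 96-well plates. Endpoint: linear interpolation; highest concentration if not reached. GI50 = concentration required for 50% inhibition of growth.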 Activity calls are given as the source filed them. No stated cut-off is given here; in the data, active = GI50 up to about 1.1 µM and inactive = higher.
# Test system: NCI-H322M
# Experiment: NCI-60 cell line screen, 48 h
row,SMILES,GI50
1,O=C1OC(c2ccccc2)=N/C1=C\c1ccccc1,inactive: > 100 µM
2,O=C1Sc2ccccc2C(=O)N2CCSC12 (configuration not stated),inactive: > 100 µM
3,CC1C2(C)OC(=N)C(C#N)(C(C)O2)C1(C#N)C#N (configuration not stated),inactive: > 100 µM
4,O=C(O)C1Cc2[nH]cnc2CN1 (configuration not stated),inactive: > 100 µM
5,N#CCCN(CCC#N)c1ccc(/C=C2\N=C(c3cc([N+](=O)[O-])ccc3Cl)OC2=O)cc1,inactive: 95.1 µM
6,O=c1[nH]nc(-c2ccccc2)n1/N=C/c1ccncc1,inactive: > 100 µM
7,CSc1nc2ccccc2c(=O)n1-c1cccc(C)c1,inactive: > 100 µM
8,COc1ccc2c(c1)CCCc1cn[nH]c1-2,inactive: > 100 µM
9,COC(=O)/C=C/CC(=O)NS(C)(=O)=O,inactive: > 10 µM
10,CCc1cccc(=O)c([O-])c1.CCc1cccc(=O)c([O-])c1.[Bi+3].[Cl-],inactive: 5.56 µM
11,c1ccc2c3nnc(c2c1)SCCCSc1nnc(c2ccccc12)SCCCS3,inactive: > 100 µM
12,COc1ccc(-c2[nH]c3c4c(nc5c(c24)C(=O)CC(C)(C)C5)CC(C)(C)C3)cc1,inactive: > 100 µM
13,COc1ccc2c(c1)[n+]([O-])c(/C(C)=N/NC(=O)c1ccccc1O)c(C)[n+]2[O-],inactive: > 100 µM
14,N/N=C(\CC1OC(=O)c2ccccc21)c1ccco1 (configuration not stated),inactive: > 100 µM
15,[N-]=[N+]=Nc1cc(=O)[nH]nc1-c1ccccc1,inactive: > 100 µM
16,COc1cc2c(cc1O)NC(=S)[C@@H]1CCCN1C2=O,inactive: > 100 µM
17,N#Cc1nc(CCCCCN2C(=O)c3ccccc3C2=O)oc1N,inactive: > 100 µM
18,Cc1ccc(-c2cs/c(=N\c3ccccc3)n2NC(=O)c2ccncc2)cc1,inactive: 69.8 µM
19,O=S(=O)(c1ccccc1)n1cc(C[P+](c2ccccc2)(c2ccccc2)c2ccccc2)c2ccccc21,inactive: 14 µM
20,CC(=O)Oc1ccc2c(c1)CC[C@@H]1C2CC[C@]2(C)C(=O)NC(=O)CC12 (some centres not stated),inactive: > 100 µM
21,COc1ccc(Nc2nnc(CCCCCCCCc3nnc(Nc4ccc(OC)cc4)o3)o2)cc1,inactive: > 100 µM
22,COC(=O)C1C(C(=O)OC)N(Cc2ccccc2)C(=O)N1Cc1ccccc1 (configuration not stated),inactive: > 100 µM
23,CC1=CC(=O)CC(C)(C)C1(O)/C=C/C(C)=C/C(=O)O (configuration not stated),inactive: > 100 µM

row,SMILES,GI50
1,C[n+]1ccc2/c(=C\C#N)c3ccccc3n21,inactive: 23.9 µM
2,CC(=O)OCC1OC(n2c(N)c(C#N)c(-c3cccc(Cl)c3)c(C#N)c2=S)C(OC(C)=O)C(OC(C)=O)C1OC(C)=O (configuration not stated),inactive: 43.2 µM
3,O=C(CCc1cc(-c2ccco2)n(-c2ccc([N+](=O)[O-])cc2[N+](=O)[O-])n1)Nc1ccccc1,inactive: > 100 µM
4,Nc1nc(Cl)cc(NCC2(O)CC(CO)C2)n1 (configuration not stated),inactive: > 100 µM
5,N#CCc1nc(-c2ccccc2)n[nH]1,inactive: > 100 µM
6,Cc1csc2n(C)c(=O)c3ccccc3[n+]12,inactive: > 100 µM
7,O=C(N/N=C1/C(=O)N(c2ccc(Cl)cc2Cl)C(=O)C(=O)C1c1nc2ccccc2o1)c1ccccc1O (configuration not stated),inactive: 41.3 µM
8,O=C1CSC(c2cccc(Oc3ccccc3)c2)N1c1ccc(Cl)cc1 (configuration not stated),inactive: 71.3 µM
9,O=NN1C(c2ccccc2)CNC(=O)CC1c1ccccc1 (configuration not stated),inactive: 99.5 µM
10,CCc1nc(Cl)nc(Cl)c1Cl,inactive: 2.6 µM
11,Cc1cc(Cl)ccc1NC(=O)/C(Cc1nc2ccc(C(=O)c3ccccc3)cc2nc1O)=N/NC(=O)c1ccncc1,inactive: > 100 µM
12,CC(C)=C1C(=O)C[C@]2(C)C[C@H]3/C(=C(/C)CCC12)CC[C@@]3(C)O (some centres not stated),inactive: > 50 µM
13,COC(=O)c1ccc(OCc2ccc3oc(=O)c(-c4ccccc4)nc3c2)cc1,inactive: > 100 µM
14,CCOc1ccccc1NC(=O)CCc1n[nH]c(=S)o1,inactive: > 100 µM
15,O=C(OCc1ccccc1)c1ccccc1-c1c2ccc(=O)cc-2oc2cc(OCc3ccccc3)ccc12,inactive: 30.2 µM
16,COc1ccc2ccccc2c1C1OC(=O)c2ccccc21 (configuration not stated),inactive: > 100 µM
17,S=C(c1c[nH]c2ccccc12)N1CCN(c2ccccc2)CC1,inactive: > 100 µM
18,Nc1nc(Nc2ccc(Cl)cc2)sc1C(=O)c1c[nH]c2ccccc12,inactive: 18.9 µM
19,CCN1CC2=C(NC(=S)NC2c2ccc(Cl)cc2)/C(=C/c2ccc(Cl)cc2)C1 (configuration not stated),inactive: > 100 µM
20,COc1cc(/C=C(\NC(=O)c2ccccc2)c2nc3cncnc3[nH]2)cc(OC)c1OC,inactive: > 100 µM
21,CC(C)NCC(O)c1cc(OCc2ccccc2)c(OCc2ccccc2)cc1NC(=O)CCC(=O)O (configuration not stated),inactive: 15.2 µM
22,CN(C)c1ccc(/C=c2/c3ccccc3n3c2cc(C24CC5CC(CC(C5)C2)C4)[n+]3C)cc1,active: 0.37 µM
23,CC(=O)Oc1c(Br)ccc2cc(C(Br)Br)c(C(=O)c3ccccc3)nc12,inactive: 18.5 µM

row,SMILES,GI50
1,NC1=NCN(C2OC(CO)C(O)C2O)C(=O)N1 (configuration not stated),inactive: 11.1 µM
2,Cc1cccc(-c2nnc(S)[nH]2)c1,inactive: > 100 µM
3,CCOC(=O)/C=C(\C(=O)OCC)n1ccc(=O)[nH]c1=O,inactive: 32.8 µM
4,C=C1CC2(CCCC3(CC(=C)C(=O)O3)C2(C)C)OC1=O (configuration not stated),inactive: 14.3 µM
5,COc1ccc(N2C(=O)C3c4[nH]c5ccc([N+](=O)[O-])cc5c4C4CCC(C(C)(C)C)CC4C3C2=O)cc1 (configuration not stated),inactive: 25.4 µM
6,CCOc1ccc2nc3cc(/N=N/c4ccc(N)nc4N)ccc3c(N)c2c1,inactive: 2.26 µM
7,COc1cc(NS(C)(=O)=O)ccc1Nc1ccnc2ccc3[nH]ccc3c12,inactive: 11.8 µM
8,COc1ccc(/C(Cl)=C(\C=O)c2cc(OC)c(OC)c(OC)c2)cc1OC,inactive: 30.8 µM
9,BrC1=CC=C2NCCCCCC/N=C3\C=CC(Br)=CC=C3NCCCCCC/N=C\2C=C1,inactive: > 25.5 µM
10,Nc1nc(SCc2ccc([N+](=O)[O-])cc2)nc2c1ncn2C1OC(CO)C(O)C1O (configuration not stated),inactive: > 100 µM
11,Cc1ccc2nc(-c3ccc(N)c(I)c3)sc2c1,inactive: 9.53 µM
12,O=S(=O)(O)c1ccc2c(/N=N\c3ccc(F)cc3)c(O)c(S(=O)(=O)O)cc2c1,inactive: > 100 µM
13,C=CC(C)C1(CCCOCc2ccccc2)C(=S)N2CCC3(CC24CCCC14)OCCO3 (configuration not stated),inactive: > 100 µM
14,CCC1(O)CC(OC2CC(N(C)C)C(OC3CC(O)C(OC4CCC(=O)C(C)O4)C(C)O3)C(C)O2)c2c(O)c3c(c(O)c2C1C(=O)OC)C(=O)c1cccc(O)c1C3=O (configuration not stated),active: 0.01 µM
15,COc1cc(C2c3cc4c(cc3[C@@H](Nc3cccc(C(C)=O)c3)C3COC(=O)[C@H]23)OCO4)cc(OC)c1O (some centres not stated),inactive: 4.23 µM
16,CC(=O)OCC1=C(C)C(OC(=O)C(OC(C)=O)[C@@H](NC(=O)c2ccccc2)c2ccccc2)CCC1(C)C (some centres not stated),inactive: > 100 µM
17,COc1cc2c(NCCCCCO)ncnc2c(OC)c1OC,inactive: > 100 µM
18,CC(C)C1CC[C@@H](C)C[C@@]1(O)CC(N)=O (some centres not stated),inactive: > 100 µM
19,COC(=O)c1ccc2c(c1)C(NC(C)=O)CCc1cc(OC)c(OC)c(OC)c1-2 (configuration not stated),active: 0.0198 µM
20,O=S(=O)(N/C(=N\O)Nc1ccc(Cl)cc1)c1ccc(S(=O)(=O)c2ccccc2)s1,inactive: 19.3 µM
21,NC1=NC(=O)[C@H](CSCc2ccccc2)N1C(=O)OCc1ccccc1,inactive: > 100 µM
